# According to the supplement of paper PMC11417369:
# The other results are listed elsewhere or left out.
# Test system: PfAP2-HC AP2 domain (GST-tagged)
# Assay: gcPBM binding intensity (ln(normalized median fluorescence intensity)); higher = stronger DNA binding
# Method in brief: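 After 1 h on an Agilent 4 × 180k array of primer-extended double-stranded 36-bp intergenic genomic probes and negative controls, bound GST-tagged P. falciparum DNA-binding domains were detected with Alexa488 anti-GST antibody and scanned at 488 nm. The domains had been expressed in E. coli, and binding took place in 1× PBS with 1% milk, 0.2 mg/ml BSA, 0.5% salmon testes DNA and 0.03% Triton X-100. Binding intensity is the highest Masliner-normalised natural-log median intensity across replicate spots of either probe orientation.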
row,Sequence,gcPBM binding intensity (ln)
1,TTTATTATGTAAGCATGTACATGATGTATATATTTA [XGTACX_site5021],9.73
2,CACAGACACGGACACACACACACACCGATATATATA [CACACA_site4353],11.2
3,ATTTTTTAAAATATTTGTACATATATAATGCATATA [XGTACX_site7026],9.49
4,TAAATACTTATATGTACACACATATAGATATATATT [CACACA_site2553],9.81
5,ATATAAATAAATGTATGTACATATATTTATATGCAT [XGTACX_site4185],9.67
6,GAAAAATTGAATTTGGGTACATATAAATATTATATT [XGTACX_site2363],9.54
7,ATAAATATTAGCAGTTGTACAATAAATATATGTAAT [XGTACX_site2534],9.83
8,TTAGATATAAAAGCATGTACTTGTATAAAATATATA [XGTACX_site8272],9.59
9,TTCCCTATATAGAGCATGCACTATATTCAAATGATG,9.64
10,TTATCAAATGAGTGTTGTACGTCTTTTGAAATACCA [XGTACX_site8804],9.42
11,TCAGATCCATAGAAGGTGCAAATAACAAAAATACAA [GTGCAC_site9610],9.86
12,TAATTTTTCTTATATAGTACACAAAAAGAAAATTAC [XGTACX_site6393],9.37
13,AAAATGTTTTTATCCAGTACATAAATATATATATAT [XGTACX_site7398],9.58
14,TATGAACACCCAAATACACACACTCAAAAAAAAAAA [CACACA_site5466],10.4
15,AAAAACTATTGTAGGACACACAAAATTCCAATTTTA [CACACA_site1701],9.82
16,AAGTAATTTATGCATACACACATATATAAATATGTA [CACACA_site7813],9.81
17,ATATATATAAAACACACACACACATGTTTTAAAACT [CACACA_site78],10.5
18,TATATATATATTTATACACACATTAGTGTATACATG [CACACA_site2950],9.87
19,CACAAAAAGAAACACACACACATATATATTTATTAT [CACACA_site3646],10.3
20,AAATAAATGTTATGCATACACACTTTATACCTATTT [CACACA_site3779],9.95
21,AATGAATGAATTATTTTGCGCTTATTATAGGACGAA [XGTACX_negctrl_site218],9.67
22,ATATATATTAGGTATTGTACTTATATGCATATAAGT [XGTACX_site2700],9.57

row,Sequence,gcPBM binding intensity (ln)
1,TCTTTTATGTTTGTTTTTCCCTTTTTTTATGTTCCC [CACACA_negctrl_site1722],9.76
2,TTTTTTTATTATTAAAGTACTAAAAAATGAAAACTG [XGTACX_site6758],9.15
3,TATAATAAAAAATGTACACACATAAGAAAATTTAAT [CACACA_site2901],10.1
4,TGGGAATAAAAACACACACACACACCGATATATATA [CACACA_site5875],11.3
5,GACTATTTTAATATTTTACACACCATGTAAAATATA [CACACA_site9050],9.64
6,ACATAATAAAAAAAACGTACAAATAGGTTTTTCATA [XGTACX_site6645],9.82
7,TATATATATATATACACACACACCGTCCGTGTTAAA [CACACA_site2979],9.87
8,ATATATTAAAACCTAGTGCATTTGTACATATTTCAA,9.58
9,AGGTTAAAACATATATATATATATATATATATATAT [XGTACX_negctrl_site333],9.5
10,GCAGTCAAAAAGGAAAATATAAAAAAAGTATATGTG [GTGCAC_negctrl_site95],9.45
11,TTATACAGGACAATAGTGCACATAAATATATGTATA,9.87
12,TATCATTAATTTACATGTACATAAATGAATGTTTAT [XGTACX_site5608],9.51
13,TTCGTAATTTATATCACACACATATATCTATAATAA [CACACA_site7458],9.88
14,TTTTTTGTTATTAAAAGTACATTATATGCTAGTTAA [XGTACX_site8747],9.34
15,TTAAAAATATTATGTACACACATTTGAGATATTTGT [CACACA_site6953],9.79
16,TGAAATAAAATTTATACACACTTGCTAAATGATCAT [CACACA_site4265],9.62
17,ATTATATACATATATGCACACAAAAAAATATATATT [CACACA_site8508],9.79
18,AAAGGCTATCTTATATACTCCTAAAACGCGAACGTA [CACACA_negctrl_site396],9.25
19,AATATATAAATATTGTGTACTTATTTTTTTATATGT [XGTACX_site4377],9.73
20,ATAAATTCTATGTATACACACATATAAAATATAGAT [CACACA_site7296],9.86
21,AACAATTTATATAAAGCACACATGGGAAGGAAATAC [CACACA_site1712],10.1
22,TACAATTTAATATATACACACAAATAAATTATGCTT [CACACA_site856],9.62
